In the supplement of paper PMC4604168 (melanoma cell lines):
This is one part of the list. Many values rest on one well or one pass, so single values are uncertain.
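Further: cells treated in 1,536-well plates, then fixed and DAPI-stained, with nuclei counted from automated high-throughput microscope images.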

Each compound was assayed on A101D (assay: cell count relative to DMSO control; melanoma cells; higher = more viable cells). Details: library dose: standard library concentration; 72 h.
In the case of `CN(c1ncccc1CNc1nc(Nc2ccc3c(c2)CC(=O)N3)ncc1C(F)(F)F)S(C)(=O)=O` + COCC[n+]1c2c(n(Cc3cnccn3)c1C)C(=O)c1ccccc1C2=O [YM155] (first compound 0.4 µM, partner dose 0.002 µM), the cell count is reported as 65.9%.
`CCCS(=O)(=O)Nc1ccc(F)c(C(=O)c2c[nH]c3ncc(Cl)cc23)c1F` + OCCn1cc(-c2cnc3nnn(Cc4ccc5ncccc5c4)c3n2)cn1 [PF04217903] (first compound 0.4 µM, partner dose 5 µM) gave a cell count of 70%.
Compound `CS(=O)(=O)c1ccc(C(=O)Nc2ccc(Cl)c(-c3ccccn3)c2)c(Cl)c1` [vismodegib] + Cc1nc(Nc2ncc(C(=O)Nc3c(C)cccc3Cl)s2)cc(N2CCN(CCO)CC2)n1 [dasatanib] (first compound 5 µM, partner dose 0.02 µM) has a cell count of 76.3%.
`C=C(c1ccc(C(=O)O)cc1)c1cc2c(cc1C)C(C)(C)CCC2(C)C` [Bexarotene] + OCCn1cc(-c2cnc3nnn(Cc4ccc5ncccc5c4)c3n2)cn1 [PF04217903] (first compound 10 µM, partner dose 5 µM) gave a cell count of 76.7%.
Work on `CS(=O)(=O)c1ccc(C(=O)Nc2ccc(Cl)c(-c3ccccn3)c2)c(Cl)c1` [vismodegib] + CN(C)S(=O)(=O)c1ccc2c(c1)/C(=C/c1cc3c([nH]1)CCCC3)C(=O)N2 [SU6656] (first compound 5 µM, partner dose 2 µM) yielded a cell count of 84.1%.
`CS(=O)(=O)c1ccc(C(=O)Nc2ccc(Cl)c(-c3ccccn3)c2)c(Cl)c1` [vismodegib] + C#Cc1cccc(Nc2ncnc3cc(OCCOC)c(OCCOC)cc23)c1 [erlotinib] (first compound 5 µM, partner dose 4 µM) showed a cell count of 62.4%.
Compound `CS(=O)(=O)c1ccc(C(=O)Nc2ccc(Cl)c(-c3ccccn3)c2)c(Cl)c1` [vismodegib] + O=C(O)c1ccc(-c2c[nH]c3ncc(-c4ccccc4)cc23)cc1C1CCCC1 [GSK650394] (first compound 5 µM, partner dose 0.8 µM) has a cell count of 110%.
`CS(=O)(=O)c1ccc(C(=O)Nc2ccc(Cl)c(-c3ccccn3)c2)c(Cl)c1` [vismodegib] + O=C(O)c1ccc2c(c1)nc(Nc1cccc(Cl)c1)c1ccncc12 [CX4945] (first compound 5 µM, partner dose 2 µM) was tested, and the cell count was 91.8%.

Each compound was assayed on A2058 in the same assay as above. Details: library dose: standard library concentration; 72 h.
In the case of `CS(=O)(=O)c1ccc(C(=O)Nc2ccc(Cl)c(-c3ccccn3)c2)c(Cl)c1` [vismodegib] + Cc1cc(N2CCOCC2)cc2[nH]c(-c3c(NC[C@@H](O)c4cccc(Cl)c4)cc[nH]c3=O)nc12 [BMS536924] (first compound 5 µM, partner dose 1 µM), the cell count is reported as 119%.
With `CN(c1ncccc1CNc1nc(Nc2ccc3c(c2)CC(=O)N3)ncc1C(F)(F)F)S(C)(=O)=O` + C[C@]1(c2nc3c(C(N)=O)cccc3[nH]2)CCCN1 [Veliparib] (first compound 0.4 µM, partner dose 7 µM) the cell count was 55.8%.
`CS(=O)(=O)c1ccc(C(=O)Nc2ccc(Cl)c(-c3ccccn3)c2)c(Cl)c1` [vismodegib] + Nc1cccc2c1CN(C1CCC(=O)NC1=O)C2=O [lenalidomide] (first compound 5 µM, partner dose 5 µM) showed a cell count of 122%.
`C=C(c1ccc(C(=O)O)cc1)c1cc2c(cc1C)C(C)(C)CCC2(C)C` [Bexarotene] + C=CCNC1=C2C[C@@H](C)C[C@H](OC)[C@H](O)[C@@H](C)/C=C(\C)[C@H](OC(N)=O)[C@@H](OC)/C=C\C=C(/C)C(=O)NC(=CC1=O)C2=O [Tanespimycin] (first compound 10 µM, partner dose 0.01 µM) was tested, and the cell count was 84.1%.
For `NC1(c2ccc(-c3nc4ccn5c(=O)[nH]nc5c4cc3-c3ccccc3)cc2)CCC1` + Cn1c(=O)n(-c2ccc(C(C)(C)C#N)cc2)c2c3cc(-c4cnc5ccccc5c4)ccc3ncc21 [NVP-BEZ235] (first compound 2 µM, partner dose 0.02 µM), the cell count was 34.4%.
With `CN(c1ncccc1CNc1nc(Nc2ccc3c(c2)CC(=O)N3)ncc1C(F)(F)F)S(C)(=O)=O` + O=C(Nc1cccc(Cl)c1)Nc1ncc(CCNc2ncnc3ccsc23)s1 [SNS314] (first compound 0.4 µM, partner dose 0.004 µM) the cell count was 63.5%.
For `CCCS(=O)(=O)Nc1ccc(F)c(C(=O)c2c[nH]c3ncc(Cl)cc23)c1F` + CC(C)(C)c1cnc(CSc2cnc(NC(=O)C3CCNCC3)s2)o1 [SNS-032] (first compound 0.4 µM, partner dose 0.05 µM), the cell count was 73.4%.
In the case of `CN(c1ncccc1CNc1nc(Nc2ccc3c(c2)CC(=O)N3)ncc1C(F)(F)F)S(C)(=O)=O` + C[C@@H]1CCN(C(=O)CC#N)C[C@@H]1N(C)c1ncnc2[nH]ccc12 [CP690550] (first compound 0.4 µM, partner dose 5 µM), the cell count is reported as 92%.
With `NC1(c2ccc(-c3nc4ccn5c(=O)[nH]nc5c4cc3-c3ccccc3)cc2)CCC1` + CO[C@@H]1[C@H](N(C)C(=O)c2ccccc2)C[C@H]2O[C@]1(C)n1c3ccccc3c3c4c(c5c6ccccc6n2c5c31)C(=O)NC4 [Midostaurin] (first compound 2 µM, partner dose 0.4 µM) the cell count was 50.8%.
`C=C(c1ccc(C(=O)O)cc1)c1cc2c(cc1C)C(C)(C)CCC2(C)C` [Bexarotene] + Cn1c(Nc2ccc(C(F)(F)F)cc2)nc2cc(Oc3ccnc(-c4ncc(C(F)(F)F)[nH]4)c3)ccc21 [CHIR265] (first compound 10 µM, partner dose 0.4 µM) was tested, and the cell count was 72.4%.
For `CCCS(=O)(=O)Nc1ccc(F)c(C(=O)c2c[nH]c3ncc(Cl)cc23)c1F` + O=C(Nc1cccc(Cl)c1)Nc1ncc(CCNc2ncnc3ccsc23)s1 [SNS314] (first compound 0.4 µM, partner dose 0.004 µM), the cell count was 88.2%.
`NC1(c2ccc(-c3nc4ccn5c(=O)[nH]nc5c4cc3-c3ccccc3)cc2)CCC1` + CC(C)(C)c1cnc(CSc2cnc(NC(=O)C3CCNCC3)s2)o1 [SNS-032] (first compound 2 µM, partner dose 0.05 µM) showed a cell count of 65.4%.
Work on `CN(c1ncccc1CNc1nc(Nc2ccc3c(c2)CC(=O)N3)ncc1C(F)(F)F)S(C)(=O)=O` + Cc1nc(Nc2ncc(C(=O)Nc3c(C)cccc3Cl)s2)cc(N2CCN(CCO)CC2)n1 [dasatanib] (first compound 0.4 µM, partner dose 0.02 µM) yielded a cell count of 41.4%.
`NC1(c2ccc(-c3nc4ccn5c(=O)[nH]nc5c4cc3-c3ccccc3)cc2)CCC1` + CNC(=O)c1cc(Oc2ccc(NC(=O)Nc3ccc(Cl)c(C(F)(F)F)c3)cc2)ccn1 [sorafenib] (first compound 2 µM, partner dose 2 µM) showed a cell count of 95%.
`NC1(c2ccc(-c3nc4ccn5c(=O)[nH]nc5c4cc3-c3ccccc3)cc2)CCC1` + C[C@@H]1CCN(C(=O)CC#N)C[C@@H]1N(C)c1ncnc2[nH]ccc12 [CP690550] (first compound 2 µM, partner dose 5 µM) was tested, and the cell count was 74%.
With `CCCS(=O)(=O)Nc1ccc(F)c(C(=O)c2c[nH]c3ncc(Cl)cc23)c1F` + COc1ccc(Cl)c(Nc2nc3ccccc3nc2NS(=O)(=O)c2cccc(NC(=O)C(C)(C)N)c2)c1 [XL147] (first compound 0.4 µM, partner dose 4 µM) the cell count was 84.9%.
For `CCCS(=O)(=O)Nc1ccc(F)c(C(=O)c2c[nH]c3ncc(Cl)cc23)c1F` + CC(=O)c1c(C)c2cnc(Nc3ccc(N4CCNCC4)cn3)nc2n(C2CCCC2)c1=O [palbociclib] (first compound 0.4 µM, partner dose 0.2 µM), the cell count was 109%.
`CCCS(=O)(=O)Nc1ccc(F)c(C(=O)c2c[nH]c3ncc(Cl)cc23)c1F` + C#Cc1cccc(Nc2ncnc3cc(OCCOC)c(OCCOC)cc23)c1 [erlotinib] (first compound 0.4 µM, partner dose 4 µM) was tested, and the cell count was 101%.
`C=C(c1ccc(C(=O)O)cc1)c1cc2c(cc1C)C(C)(C)CCC2(C)C` [Bexarotene] + Cc1cc(N2CCOCC2)cc2[nH]c(-c3c(NC[C@@H](O)c4cccc(Cl)c4)cc[nH]c3=O)nc12 [BMS536924] (first compound 10 µM, partner dose 1 µM) gave a cell count of 96.7%.
Compound `CS(=O)(=O)c1ccc(C(=O)Nc2ccc(Cl)c(-c3ccccn3)c2)c(Cl)c1` [vismodegib] + CCCS(=O)(=O)Nc1ccc(F)c(C(=O)c2c[nH]c3ncc(Cl)cc23)c1F [PLX4720] (first compound 5 µM, partner dose 0.4 µM) has a cell count of 134%.
`CCCS(=O)(=O)Nc1ccc(F)c(C(=O)c2c[nH]c3ncc(Cl)cc23)c1F` + COc1cc2c(Oc3ccc4[nH]c(C)cc4c3F)ncnc2cc1OCCCN1CCCC1 [cediranib] (first compound 0.4 µM, partner dose 2 µM) showed a cell count of 79.2%.
Compound `CS(=O)(=O)c1ccc(C(=O)Nc2ccc(Cl)c(-c3ccccn3)c2)c(Cl)c1` [vismodegib] + COc1cc(Nc2ncc(F)c(Nc3ccc4c(n3)NC(=O)C(C)(C)O4)n2)cc(OC)c1OC [Tamatinib] (first compound 5 µM, partner dose 2 µM) has a cell count of 74.5%.
`C=C(c1ccc(C(=O)O)cc1)c1cc2c(cc1C)C(C)(C)CCC2(C)C` [Bexarotene] + NCC(=O)Nc1ccc(-n2nc(C(F)(F)F)cc2-c2ccc3c(ccc4ccccc43)c2)cc1 [OSU03012] (first compound 10 µM, partner dose 5 µM) showed a cell count of 91.6%.
